We go through three molecules from patent publication US20230272105A1 (Genmab, published 2023).

Assay [1] deals with T1, recombinant his-tagged extracellular domain of CD38 (hisCD38) (human, UniProt P28907 45-300).
T1 construct: also called His-tagged soluble human CD38
In words: ligand binding ELISA on coated HIS-CD38; Batch B, 5±3°C, 1 month. On the technique in general: An ELISA detects its analyte on a solid surface through an enzyme-linked reagent.

The target of assay [2] is T1, recombinant his-tagged extracellular …. In words: ligand binding ELISA on coated HIS-CD38; Batch B, 5±3°C, 0 months.
Assay [3] has the same target. Kind of assay: ligand binding ELISA on coated HIS-CD38; Batch B, 5±3°C, 2 months.
The target is the same in assay [4]. In words: ligand binding ELISA on coated HIS-CD38; Batch B, 5±3°C, 3 months.
For assay [5] the target is unchanged. Kind of assay: ligand binding ELISA on coated HIS-CD38; Batch B, ≤ -65°C, 1 month.
For assay [6] the target is unchanged. In words: ligand binding ELISA on coated HIS-CD38; Batch B, ≤ -65°C, 0 months.
Assay [7] shares this target. Kind of assay: ligand binding ELISA on coated HIS-CD38; Batch B, ≤ -65°C, 2 months.
Assay [8] shares this target. Kind of assay: ligand binding ELISA on coated HIS-CD38; Batch B, ≤ -65°C, 3 months.
Assay [9] shares this target. Kind of assay: ligand binding ELISA on coated HIS-CD38; Batch A, 5±3°C upright, 3 months.
Assay [10] shares this target. Kind of assay: ligand binding ELISA on coated HIS-CD38; Batch A, 5±3°C upright, 6 months.
Assay [11] has the same target. In words: ligand binding ELISA on coated HIS-CD38; Batch A, 5±3°C inverted, 0 months.
Assay [12] has the same target. Kind of assay: ligand binding ELISA on coated HIS-CD38; Batch A, 5±3°C inverted, 3 months.
Assay [13] shares this target. Kind of assay: ligand binding ELISA on coated HIS-CD38; Batch A, 5±3°C inverted, 6 months.
Assay [14] has the same target. Kind of assay: ligand binding ELISA on coated HIS-CD38; Batch B, 25±2°C/60±5% RH, 1 month.
For assay [15] the target is unchanged. In words: ligand binding ELISA on coated HIS-CD38; Batch A, 25±2°C/60±5% RH, 0 months.
For assay [16] the target is unchanged. In words: ligand binding ELISA on coated HIS-CD38; Batch A, 25±2°C/60±5% RH, 2 months.
Assay [17] shares this target. In words: ligand binding ELISA on coated HIS-CD38; Batch A, 25±2°C/60±5% RH, 3 months.
For assay [18] the target is unchanged. Kind of assay: ligand binding ELISA on coated HIS-CD38; Batch A, 25±2°C/60±5% RH, 6 months.
For assay [19] the target is unchanged. In words: ligand binding ELISA on coated HIS-CD38; Batch B, 25±2°C/60±5% RH, 0 months.
The target is the same in assay [20]. Kind of assay: ligand binding ELISA on coated HIS-CD38; Batch B, 25±2°C/60±5% RH, 2 months.
For assay [21] the target is unchanged. In words: ligand binding ELISA on coated HIS-CD38; Batch B, 25±2°C/60±5% RH, 3 months.
In assay [22] the target is T2, Human CD38 expressed on the cell surface (human, UniProt P28907 1-300). Kind of assay: cell-based or functional assay.
The target of assay [23] is T2, Human CD38 expressed on the cell surface. Kind of assay: cell-based or functional assay. The source holds these as a separate data set.
The target in assay [24] is T1, recombinant his-tagged extracellular …. Kind of assay: BLI (Octet HTX), antibody on anti-human IgG Fc capture sensors, His-CD38 0.78-50 nM, 1:1 model; experiment 1.
Assay [25] shares this target. Kind of assay: BLI (Octet HTX), antibody on anti-human IgG Fc capture sensors, His-CD38 0.78-50 nM, 1:1 model; experiment 2. (In BLI a coated tip is dipped into the sample, and binding shifts an interference pattern.)
For assay [26] the target is unchanged. Kind of assay: BLI (Octet HTX), antibody on anti-human IgG Fc capture sensors, His-CD38 0.78-50 nM, 1:1 model; experiment 3.
Assay [27] shares this target. Kind of assay: BLI (Octet HTX), antibody on anti-human IgG Fc capture sensors, His-CD38 0.78-50 nM, 1:1 model; average of three experiments.

B1: IgG1-C-E430G with a CH comprising SEQ ID NO:46, expressed in CHO cells (formulated, Batch no. A and Batch no. B) (antibody)
heavy: QVQLVQSGAEVKKPGSSVKVSCKAFGGTFSSYAISWVRQAPGQGLEWMGRIIRFLGIANYAQKFQGRVTLIADKSTNTAYMELSSLRSEDTAVYYCAGEPGERDPDAVDIWGQGTMVTVSSASTKGPSVFPLAPSSKSTSGGTAALGCLVKDYFPEPVTVSWNSGALTSGVHTFPAVLQSSGLYSLSSVVTVPSSSLGTQTYICNVNHKPSNTKVDKRV[human IgG1 Fc with E430G (EU numbers) not written out]
light: [about 200 residues with changes not written out]
notes: Formulated at 20 mg/mL in 20 mM histidine, 250 mM sorbitol, 0.04% PS80, pH 6.0; also called HexaBody-CD38
With B1, the “ELISA % relative to reference standard” value was determined as 108% in assay [1]; 93% in assay [2]; 113% in [3]; 102% in assay [4]; 103% in [5]; 93% in [6]. Further, the “ELISA % relative to reference standard” value is 113% in assay [7]; 99% in [8]; 103% in assay [9]; 105% in assay [10]; 102% in assay [11]; 105% in [12]. In addition, the “ELISA % relative to reference standard” value in [13] was found to be 107%; in [15], 102%; in [16], 107%; in assay [17], 105%; in [18], 104%. The “Antigen binding % relative to reference standard” value is 106% in assay [14], 93% in [19], 112% in [20] and 110% in assay [21].

B2: IgG1-C (antibody)
heavy: QVQLVQSGAEVKKPGSSVKVSCKAFGGTFSSYAISWVRQAPGQGLEWMGRIIRFLGIANYAQKFQGRVTLIADKSTNTAYMELSSLRSEDTAVYYCAGEPGERDPDAVDIWGQGTMVTVSSASTKGPSVFPLAPSSKSTSGGTAALGCLVKDYFPEPVTVSWNSGALTSGVHTFPAVLQSSGLYSLSSVVTVPSSSLGTQTYICNVNHKPSNTKVDKRV[human IgG1 Fc not written out]
light: [about 200 residues not written out]
notes: Human IgG1m(f), kappa, expressed in Expi293F cells; also called CD38 antibody C; CD38 Ab C
On to B2, for which the “CDC percent lysis of Ramos and Daudi cells” value in assay [22] is approximately 50%.

B3: IgG1-C-E430G (antibody)
heavy: QVQLVQSGAEVKKPGSSVKVSCKAFGGTFSSYAISWVRQAPGQGLEWMGRIIRFLGIANYAQKFQGRVTLIADKSTNTAYMELSSLRSEDTAVYYCAGEPGERDPDAVDIWGQGTMVTVSSASTKGPSVFPLAPSSKSTSGGTAALGCLVKDYFPEPVTVSWNSGALTSGVHTFPAVLQSSGLYSLSSVVTVPSSSLGTQTYICNVNHKPSNTKVDKRV[human IgG1 Fc with E430G (EU numbers) not written out]
light: [about 200 residues with changes not written out]
notes: also called E430G mutated C
As for B3, the “CDC percent lysis of Ramos and Daudi cells” value in assay [22] is not above 100%. In addition, in assay [23], the “CDC EC50, 697 cells” value was determined as 0.087 µg/mL; the “CDC EC50, AML-193 cells” value was determined as 0.032 µg/mL; the “CDC EC50, DOHH2 cells” value was 0.115 µg/mL; the “CDC EC50, Daudi cells” value is 0.03 µg/mL. Moreover, in assay [23], the “CDC EC50, HL-60 cells” value worked out at 0.07 µg/mL; the “CDC EC50, JVM-3 cells” value amounted to 0.11 µg/mL; the “CDC EC50, JVM-13 cells” value was determined as 0.146 µg/mL; the “CDC EC50, Jeko-1 cells” value stood at 0.108 µg/mL. Besides, in assay [23], the “CDC EC50, KG-1 cells” value was found to be 0.104 µg/mL; the “CDC EC50, LP-1 cells” value was 0.02 µg/mL; the “CDC EC50, MEGAL cells” value was 0.17 µg/mL; the “CDC EC50, ML-2 cells” value came out at 0.023 µg/mL. Further, in assay [23], the “CDC EC50, MOLM-13 cells” value came out at 0.017 µg/mL; the “CDC EC50, NALM-16 cells” value came to 0.022 µg/mL; the “CDC EC50, NCI-H929 cells” value was found to be 0.308 µg/mL; the “CDC EC50, Nomo-1 cells” value turned out to be 0.039 µg/mL. Also, in assay [23], the “CDC EC50, Oci-AML3 cells” value stood at 0.046 µg/mL; the “CDC EC50, Oci-Ly18 cells” value came to 0.057 µg/mL; the “CDC EC50, Oci-Ly-7 cells” value is 0.012 µg/mL; the “CDC EC50, Oci-Ly-19 cells” value is 0.031 µg/mL. Further, in assay [23], the “CDC EC50, REH cells” value was determined as 0.039 µg/mL; the “CDC EC50, RS4;11 cells” value turned out to be 0.093 µg/mL; the “CDC EC50, Raji cells” value was 0.036 µg/mL; the “CDC EC50, Ramos cells” value worked out at 0.013 µg/mL. For the same molecule, in assay [23], the “CDC EC50, SU-DHL-4 cells” value amounted to 0.073 µg/mL; the “CDC EC50, THP-1 cells” value was found to be 0.075 µg/mL; the “CDC EC50, U266 cells” value is 0.052 µg/mL; the “CDC EC50, U937 cells” value came out at 0.057 µg/mL. In assay [23], the “CDC EC50, WSU-DLCL2 cells” value was found to be 0.345 µg/mL; the “CDC EC50, Wien133 cells” value is 0.015 µg/mL; the “CDC EC50, Z-138 cells” value came out at 0.106 µg/mL; the “CDC EC50, monomac6 cells” value was 0.093 µg/mL. For the same molecule, in assay [24], the Kd is 1 nM, the koff came to 0.0004 s⁻¹ and the kon stood at 380000 M⁻¹ s⁻¹. Further, in assay [25], the Kd came to 0.95 nM, the koff was found to be 0.00041 s⁻¹ and the kon worked out at 430000 M⁻¹ s⁻¹. Besides, in assay [26], the Kd stood at 1.3 nM, the koff came to 0.00052 s⁻¹ and the kon is 410000 M⁻¹ s⁻¹. Further, in [27], the Kd came to 1.1 nM, the koff was determined as 0.00044 s⁻¹ and the kon stood at 410000 M⁻¹ s⁻¹.

As a reminder, the Kd is the equilibrium constant for the complex coming apart. For orientation: koff means a measure of how fast the partners let go of each other. Usually kon stands for the rate constant with which the complex forms.
